This note sets out measurements from PMC4336329 (PLoS ONE, 2015).

Among all 310,000 compounds or so, about 2,200 (0.71%) showed an effect of 50% or more. The effect is printed as a negative number. The list shows a part of the results.

In this assay the target is human ether-à-go-go-related gene (hERG) potassium channel (human, UniProt Q12809). Description: primary screen, population patch clamp on CHO cells stably expressing hERG.
Chain of human ether-à-go-go-related gene (hERG) potassium channel (Q12809 whole entry, looked up): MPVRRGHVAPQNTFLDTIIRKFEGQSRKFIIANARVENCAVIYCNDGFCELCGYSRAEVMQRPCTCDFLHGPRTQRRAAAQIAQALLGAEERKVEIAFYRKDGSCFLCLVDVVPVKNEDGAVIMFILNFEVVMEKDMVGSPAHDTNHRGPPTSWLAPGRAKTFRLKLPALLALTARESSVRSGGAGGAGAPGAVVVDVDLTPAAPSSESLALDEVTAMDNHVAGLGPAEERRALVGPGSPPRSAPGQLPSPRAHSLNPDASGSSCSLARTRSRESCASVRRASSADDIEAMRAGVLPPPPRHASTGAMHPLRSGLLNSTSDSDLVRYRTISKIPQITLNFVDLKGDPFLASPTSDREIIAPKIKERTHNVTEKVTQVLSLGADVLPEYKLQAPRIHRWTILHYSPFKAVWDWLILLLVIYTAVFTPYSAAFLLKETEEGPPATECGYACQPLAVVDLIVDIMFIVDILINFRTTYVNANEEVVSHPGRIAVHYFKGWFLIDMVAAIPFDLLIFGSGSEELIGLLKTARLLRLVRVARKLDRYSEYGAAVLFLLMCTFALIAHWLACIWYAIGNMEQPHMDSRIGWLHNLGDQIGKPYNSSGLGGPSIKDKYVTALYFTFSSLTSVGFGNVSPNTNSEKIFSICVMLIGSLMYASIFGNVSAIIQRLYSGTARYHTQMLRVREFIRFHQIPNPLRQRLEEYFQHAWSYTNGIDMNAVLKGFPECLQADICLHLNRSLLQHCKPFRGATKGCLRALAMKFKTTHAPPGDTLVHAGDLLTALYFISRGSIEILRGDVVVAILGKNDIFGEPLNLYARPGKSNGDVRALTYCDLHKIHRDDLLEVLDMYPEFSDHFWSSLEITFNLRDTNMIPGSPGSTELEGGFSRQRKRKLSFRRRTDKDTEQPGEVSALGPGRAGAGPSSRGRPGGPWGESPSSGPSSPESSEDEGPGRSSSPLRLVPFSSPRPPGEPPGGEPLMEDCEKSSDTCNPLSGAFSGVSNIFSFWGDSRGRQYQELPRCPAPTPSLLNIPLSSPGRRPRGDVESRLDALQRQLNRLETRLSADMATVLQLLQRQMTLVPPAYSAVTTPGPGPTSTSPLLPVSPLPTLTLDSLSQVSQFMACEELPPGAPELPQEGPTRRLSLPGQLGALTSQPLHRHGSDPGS
In the case of `COc1ccc(CCNC(=O)C2CCCN(S(=O)(=O)c3cccc4nonc34)C2)cc1OC` (stereo not shown), the “hERG current change (%, negative = inhibition) at 1uM” value amounted to 14.1%. Take `CCOc1ccccc1C(=O)NCC(=O)OCC(=O)c1ccc2c(c1)OCCO2`: the “hERG current change (%, negative = inhibition) at 1uM” value was -6%. As for `Cc1sc(NC(=O)CCl)c(C(=O)c2ccccc2)c1C`, the “hERG current change (%, negative = inhibition) at 1uM” value is given as 15.1%. For `CCN(CC)S(=O)(=O)c1cc(C(=O)Nc2cc(C)on2)c(Cl)cc1Cl` the value was 16.2%. In the case of `COc1ccc(CC(=O)N2CCC(c3ccccc3)C2)cc1` (stereo not shown), the “hERG current change (%, negative = inhibition) at 1uM” value came to 5.25%.

`COc1cc(C(=O)NCc2cccnc2)ccc1OCC(=O)Nc1cccc(C(F)(F)F)c1`: the “hERG current change (%, negative = inhibition) at 1uM” value is 2.87%. For `CCN(CC)CCNC(=O)CNC(=O)c1nn(-c2ccc(OC)c(OC)c2)c(=O)c2ccccc12`, the “hERG current change (%, negative = inhibition) at 1uM” value came out at 13.1%. For `Cc1ccc(NC(=O)C2CCN(S(=O)(=O)c3cccc4nonc34)CC2)nc1` the value was 10.1%; for `O=C(c1cc([N+](=O)[O-])ccc1Cl)N1CCN(c2ccccn2)CC1`, 10.5%; for `N#C/C(=C\c1cc([N+](=O)[O-])c(N2CCOCC2)cc1N1CCOCC1)c1nc2ccccc2[nH]1`, -0.443%.

In the case of `CCOC(=O)C1CCCN(C(=O)c2sc3nc(-c4ccccc4)cn3c2C)C1` (stereo not shown), the “hERG current change (%, negative = inhibition) at 1uM” value was -8.83%. In the case of `COc1ccc(/C=N/n2c(C)nc3ccccc3c2=O)cc1` it was 14.4%; in that of `COc1ccc(C2/C(=C(/O)c3ccc4c(c3)CC(C)O4)C(=O)C(=O)N2CCCN2CCOCC2)cc1OC` (stereo not shown), 7.28%; in that of `COc1cccc(NC(=O)C2CCN(c3cnccn3)CC2)c1`, 7.74%. In the case of `COc1ccccc1C(=O)COC(=O)c1nc(Cl)ccc1Cl` it was 8.71%; in that of `CN(c1ccccc1)S(=O)(=O)c1nnc(NC(=O)c2ccco2)s1`, 12.2%; in that of `O=C(Nc1nc(-c2ccccc2)c(-c2ccccc2)s1)c1ccc(S(=O)(=O)N2CCCC2)cc1`, 7.54%. As for `COc1ccc2c(c1OC)C(=O)N(c1nccs1)C2`, the “hERG current change (%, negative = inhibition) at 1uM” value turned out to be 8.11%. As for `Cn1cc(S(=O)(=O)N2CCc3ccccc3C2)c(=O)n(C)c1=O`, the “hERG current change (%, negative = inhibition) at 1uM” value amounted to 2.59%.

As to `COc1cccc(-c2noc(-c3ccoc3C)n2)c1`, the “hERG current change (%, negative = inhibition) at 1uM” value is listed as 26.8%. For the molecule `O=C(Nc1cccc(S(=O)(=O)NC2=NCCC2)c1)C1CC(=O)N(c2ccc3c(c2)OCCO3)C1` (stereo not shown), the “hERG current change (%, negative = inhibition) at 1uM” value is given as 11.8%. In the case of `O=C(Nc1nc(-c2ccccc2)c(C(=O)c2ccccc2)s1)c1ccc(S(=O)(=O)N2CCCCC2)cc1` it was 5.98%.
